# Test results as given in patent publication EP4748847A1, “PEPTIDE COMPLEX HAVING VEGFR -2 AGONIST ACTIVITY” (Peptidream Inc, priority 2023, dated 2025).
# Not every detail of the peptide structures is certain; ends, links or a residue may be inferred. *1 amine or outer side, *2 acyl side, *3 side chain or, on linkers, in order; H or OH if unused. Where a SMILES comes first, the peptide text is derived from it. Bridges are numbered along the chain shown (N, C = ends). Roman numbers before positions name the chains, in order. [ ]: non-standard residue; d: D form. CO(CH2)2(OCH2CH2)17CO = O=C(CCOCCOCCOCCOCCOCCOCCOCCOCCOCCOCCOCCOCCOCCOCCOCCOCCOCCC(=O)[*:2])[*:1]; X2 = O=C(OCCOCCOCCOCCOCCOCCOCCOCCOCCOCCOCCOCCOC(=O)[*:2])[*:1]; Phe(4-guanidino) = N=C(N)Nc1ccc(C[C@H](N)C(=O)O)cc1; hTyr = N[C@@H](CCc1ccc(O)cc1)C(=O)O; Hyp = O=C(O)[C@@H]1C[C@@H](O)CN1; tBuAla = CC(C)(C)C[C@H](N)C(=O)O; Chg = N[C@H](C(=O)O)C1CCCCC1; Tle = CC(C)(C)[C@H](N)C(=O)O
# Tests used:
# ERK = assay: pERK AlphaLISA assay (ERK phosphorylation, p-Erk1/2 Thr202/Tyr204) in HUVEC lysate; assay type: cell-based, human; settings: HUVEC lysate of the pVEGFR assay, % activity, maximum VEGF165a signal = 100%, unstimulated = 0%
# Method: To evaluate the intracellular signaling activation ability of the VEGFR-2 agonist peptides of the present invention, ERK phosphorylation was verified. Using the lysate employed in the pVEGFR AlphaLISA assay, the assay was performed according to the protocol of the AlphaLISA SureFire Ultra p-Erk1/2 (Thr202/Tyr204) Assay Kit (PerkinElmer). Signal detection was performed using a SpectraMax Paradigm multimode microplate reader (Molecular Devices). The obtained signals were analyzed using GraphPad Prism, and % activity was calculated with the maximum signal induced by VEGF165a set as 100% and the unstimulated control as 0%.
# The VEGF165a concentration was evaluated at five points (0.08, 0.31, 1.25, 5, 20 nM) using 1/4-fold dilutions starting from 20 nM to determine the maximum value (100%). Peptide concentrations tested were: 3.2, 16, 80 nM for dimer structure […], 100 nM for dimer structures numbers 2-41; and 1.25, 5, 20 nM for dimer structures numbers 42-57.
# For % activity, peptides showing ≥50% activity at 3.2 nM were designated 1-A, those showing ≥50% activity at 16 nM were designated 1-B, those showing ≥50% activity at 80 nM were designated 1-C, and those showing ≥1% but <50% activity at 80 nM were designated 1-D.
# Peptides showing 50% or more activity at 10 nM were designated 2-A, those showing 50% or more activity at 100 nM were designated 2-B, and those showing 1% or more but less than 50% activity at 100 nM were designated 2-C.
# Peptides showing 50% or more activity at 1.25 nM were designated 3-A, those showing 50% or more activity at 5 nM were designated 3-B, those showing 50% or more activity at 20 nM were designated 3-C, and those showing 1% or more but less than 50% activity at 20 nM were designated 3-D.
# HUVEC = HUVEC proliferation promotion evaluation (CellTiter-Glo); assay type: cell-based, human; settings: 2 days culture, % activity, maximum VEGF165a signal = 100%
# Method: To evaluate the biological activity of the VEGFR-2 agonist peptide of the present invention, an HUVEC proliferation promotion evaluation was conducted. HUVECs cultured as described above were detached using Tryple (Thermo Fisher Scientific). They were then seeded at 10,000 cells per well onto Nunc™ MicroWell™ 96 -Well, Nunclon Delta-Treated, Flat-Bottom Microplate (cat. #136101) . After 24 hours, cells were starved by replacing with EBM-2 medium (LONZA) containing 0.5% FBS (Thermo Fisher Scientific), 0.1% Heparin (included with the above Lonza CC-3162), and 0.1% Gentamicin (Nacalai) and cultured for 18 hours. Subsequently, Recombinant Human VEGF 165a Protein (R&D Systems) or the peptide was added, and the cells were cultured for 2 days at 37°C in a CO2 incubator. Assays were performed according to the CellTiter-Glo (Promega) kit protocol, and signals were detected using a SpectraMax Paradigm multimode microplate reader (Molecular Devices) was used for signal detection. The obtained signals were analyzed using GraphPad Prism, and % activity was calculated with the maximum signal induced by VEGF165a set as 100% and the unstimulated control as 0%.
# The VEGF165a concentration was evaluated at six points (0.006, 0.03, 0.16, 0.8, 4, 20 nM) using 1/5-fold dilutions starting from 20 nM to determine the maximum value (100%). For peptide concentrations, dimer structures #2, #5, #13, #14, #25, #27, #29, #31, and #33 were tested at 1, 10, and 100 nM. For dimer structures #42 to #53, tests were conducted at 20 nM and then diluted at 1/4 intervals to four points (0.31, 1.25, 5, and 20 nM).
# For % activity, peptides showing 50% or more activity at 1 nM were designated 4-A, those showing ≥50% activity at 10 nM were designated 4-B, those showing ≥50% activity at 100 nM were designated 4-C, and those showing ≥1% but <50% activity at 100 nM were designated 4-D.
# Peptides showing ≥50% activity at 0.31 nM were designated 5-A, those with 50% or more activity at 1.25 nM peptide concentration were designated as 5-B, those with 50% or more activity at 5 nM peptide concentration were designated as 5-C, those with 50% or more activity at 20 nM peptide concentration were designated as 5-D, and those with 1% or more but less than 50% activity at 20 nM peptide concentration were designated as 5-E.
# [1] = peptide 1.25, 5, 20 nM (dimer structures 42-57)
Compound,"pERK Assay Results (ERK; peptide 10, 100 nM (dimer structures 2-41))","proliferation (HUVEC; peptide 1, 10, 100 nM)",pERK Assay Results (ERK; [1]),"proliferation (HUVEC; peptide 0.31, 1.25, 5, 20 nM)"
"CC(C)C[C@@H]1NC(=O)[C@H](CC(=O)O)NC(=O)[C@H](CC(=O)O)NC(=O)[C@H](CCCCNC(=O)CCOCCOCCOCCOCCOCCOCCOCCOCCOCCOCCOCCOCCOCCOCCOCCOCCOCCC(=O)NCCCC[C@@H]2NC(=O)[C@H](C(C)C)NC(=O)[C@H](CC(=O)O)NC(=O)[C@H](C3CCCCC3)NC(=O)[C@H](Cc3c[nH]c4ccccc34)NC(=O)[C@H](Cc3c[nH]c4ccccc34)NC(=O)CSC[C@@H](C(=O)NCC(N)=O)NC(=O)[C@H](CC(=O)O)NC(=O)[C@H](CCc3ccc(O)cc3)NC(=O)[C@H](Cc3ccccc3)NC(=O)[C@H](Cc3ccc(O)cc3)NC(=O)[C@H](CC(C)C)NC(=O)[C@H](CC(=O)O)NC(=O)[C@H](CC(=O)O)NC2=O)NC(=O)[C@H](C(C)C)NC(=O)[C@H](CC(=O)O)NC(=O)[C@H](C2CCCCC2)NC(=O)[C@H](Cc2c[nH]c3ccccc23)NC(=O)[C@H](Cc2c[nH]c3ccccc23)NC(=O)CSC[C@@H](C(=O)NCC(N)=O)NC(=O)[C@H](CC(=O)O)NC(=O)[C@H](CCc2ccc(O)cc2)NC(=O)[C@H](Cc2ccccc2)NC(=O)[C@H](Cc2ccc(O)cc2)NC1=O [compound 25] (I: {CH2CO}-WW[Chg]DVKDDLYF[hTyr]DCG-NH2 / II: {CH2CO}-WW[Chg]DVKDDLYF[hTyr]DCG-NH2; linker I:6-II:6 via CO(CH2)2(OCH2CH2)17CO; thioether I:N-I:14, II:N-II:14)",2-A (50% or more activity at 10 nM),4-B (≥50% activity at 10 nM),–,–
"CC(C)C[C@@H]1NC(=O)[C@H](CC(=O)O)NC(=O)[C@H](CC(=O)O)NC(=O)[C@H](CCCCNC(=O)CCOCCOCCOCCOCCOCCOCCOCCOCCOCCOCCOCCOCCOCCOCCOCCOCCOCCC(=O)NCCCC[C@@H]2NC(=O)[C@H](C(C)C)NC(=O)[C@H](CC(=O)O)NC(=O)[C@H](C(C)(C)C)NC(=O)[C@H](Cc3c[nH]c4ccccc34)NC(=O)[C@H](Cc3c[nH]c4ccccc34)NC(=O)CSC[C@@H](C(=O)NCC(N)=O)NC(=O)[C@H](CC(=O)O)NC(=O)[C@H](C(C)C)NC(=O)[C@H](Cc3ccc(NC(=N)N)cc3)NC(=O)[C@H](Cc3ccc(O)cc3)NC(=O)[C@H](CC(C)C)NC(=O)[C@H](CC(=O)O)NC(=O)[C@H](CC(=O)O)NC2=O)NC(=O)[C@H](C(C)C)NC(=O)[C@H](CC(=O)O)NC(=O)[C@H](C(C)(C)C)NC(=O)[C@H](Cc2c[nH]c3ccccc23)NC(=O)[C@H](Cc2c[nH]c3ccccc23)NC(=O)CSC[C@@H](C(=O)NCC(N)=O)NC(=O)[C@H](CC(=O)O)NC(=O)[C@H](C(C)C)NC(=O)[C@H](Cc2ccc(NC(=N)N)cc2)NC(=O)[C@H](Cc2ccc(O)cc2)NC1=O [compound 43] (I: {CH2CO}-WW[Tle]DVKDDLY[Phe(4-guanidino)]VDCG-NH2 / II: {CH2CO}-WW[Tle]DVKDDLY[Phe(4-guanidino)]VDCG-NH2; linker I:6-II:6 via CO(CH2)2(OCH2CH2)17CO; thioether I:N-I:14, II:N-II:14)",–,–,3-B (50% or more activity at 5 nM),5-C (50% or more activity at 5 nM peptide concentration)
"CC(C)[C@@H]1NC(=O)[C@H](CC(=O)O)NC(=O)[C@H](C(C)(C)C)NC(=O)[C@H](Cc2c[nH]c3ccccc23)NC(=O)[C@H](Cc2c[nH]c3ccccc23)NC(=O)CSC[C@@H](C(=O)NCC(N)=O)NC(=O)[C@@H]2C[C@@H](O)CN2C(=O)[C@H](CCc2ccc(O)cc2)NC(=O)[C@H](Cc2ccc(NC(=N)N)cc2)NC(=O)[C@H](Cc2ccc(O)cc2)NC(=O)[C@H](CC(C)(C)C)NC(=O)[C@H](CC(=O)O)NC(=O)[C@H](CC(=O)O)NC(=O)[C@H](CCCCNC(=O)OCCOCCOCCOCCOCCOCCOCCOCCOCCOCCOCCOCCOC(=O)NCCCC[C@@H]2NC(=O)[C@H](C(C)C)NC(=O)[C@H](CC(=O)O)NC(=O)[C@H](C(C)(C)C)NC(=O)[C@H](Cc3c[nH]c4ccccc34)NC(=O)[C@H](Cc3c[nH]c4ccccc34)NC(=O)CSC[C@@H](C(=O)NCC(N)=O)NC(=O)[C@@H]3C[C@@H](O)CN3C(=O)[C@H](CCc3ccc(O)cc3)NC(=O)[C@H](Cc3ccc(NC(=N)N)cc3)NC(=O)[C@H](Cc3ccc(O)cc3)NC(=O)[C@H](CC(C)(C)C)NC(=O)[C@H](CC(=O)O)NC(=O)[C@H](CC(=O)O)NC2=O)NC1=O [compound 54] (I: {CH2CO}-WW[Tle]DVKDD[tBuAla]Y[Phe(4-guanidino)][hTyr][Hyp]CG-NH2 / II: {CH2CO}-WW[Tle]DVKDD[tBuAla]Y[Phe(4-guanidino)][hTyr][Hyp]CG-NH2; linker I:6-II:6 via X2; thioether I:N-I:14, II:N-II:14)",–,–,3-B (50% or more activity at 5 nM),–
"CC(C)[C@@H]1NC(=O)[C@H](CC(=O)O)NC(=O)[C@H](CCc2ccc(O)cc2)NC(=O)[C@H](Cc2c[nH]c3ccccc23)NC(=O)[C@H](Cc2c[nH]c3ccccc23)NC(=O)CSC[C@@H](C(=O)NCC(N)=O)NC(=O)[C@H](CC(=O)O)NC(=O)[C@H](CCc2ccc(O)cc2)NC(=O)[C@H](Cc2ccc(NC(=N)N)cc2)NC(=O)[C@H](Cc2ccc(O)cc2)NC(=O)[C@H](CC(C)(C)C)NC(=O)[C@H](CC(=O)O)NC(=O)[C@H](CC(=O)O)NC(=O)[C@H](CCCCNC(=O)OCCOCCOCCOCCOCCOCCOCCOCCOCCOCCOCCOCCOC(=O)NCCCC[C@@H]2NC(=O)[C@H](C(C)C)NC(=O)[C@H](CC(=O)O)NC(=O)[C@H](CCc3ccc(O)cc3)NC(=O)[C@H](Cc3c[nH]c4ccccc34)NC(=O)[C@H](Cc3c[nH]c4ccccc34)NC(=O)CSC[C@@H](C(=O)NCC(N)=O)NC(=O)[C@H](CC(=O)O)NC(=O)[C@H](CCc3ccc(O)cc3)NC(=O)[C@H](Cc3ccc(NC(=N)N)cc3)NC(=O)[C@H](Cc3ccc(O)cc3)NC(=O)[C@H](CC(C)(C)C)NC(=O)[C@H](CC(=O)O)NC(=O)[C@H](CC(=O)O)NC2=O)NC1=O [compound 57] (I: {CH2CO}-WW[hTyr]DVKDD[tBuAla]Y[Phe(4-guanidino)][hTyr]DCG-NH2 / II: {CH2CO}-WW[hTyr]DVKDD[tBuAla]Y[Phe(4-guanidino)][hTyr]DCG-NH2; linker I:6-II:6 via X2; thioether I:N-I:14, II:N-II:14)",–,–,3-C (50% or more activity at 20 nM),–
